Data as given in PubChem BioAssay AID504832 (National Center for Advancing Translational Sciences (NCATS), 2011).
The whole screen tested about 310,000 compounds, of which about 18,000 (5.8%) were called active. The shares of active, inactive and inconclusive entries below differ from those in the screen. Calls follow the shape of the dose curve; as a rule, active = well fitted inhibition curve with a large enough effect; inconclusive = small, poorly fitted or top-dose-only effect, or another doubt; inactive = no such curve, though single readings can be large or run the other way. Potencies of inconclusive entries are left out as doubtful fits.

experiment: Primary qHTS for delayed death inhibitors of the malarial parasite plastid, 48 hour incubation; conditions: P. falciparum luciferase growth in erythrocytes; series mostly up to 28.7 µM; activity change, negative = inhibition: at the top concentration
Outline: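 Luciferase-expressing parasites in RBCs, 2% Hct / 0.1% parasitemia final; RPMI 1640 + 0.5% Albumax; 37 C, 5% CO2, one generation; luminescence read-out, lower signal = inhibition.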
% is scaled to controls: 0 for no effect and ±100 for the full control effect; potency is read from the fitted curve at half-maximal effect; tags tell the direction and shape of the fitted curve.

Row | SMILES | Potency | activity change, negative = inhibition
1 | O=C(CN1CCCCC1)c1c[nH]c2ccccc12 | inconclusive [inhibitor, single point] | –
2 | COc1ccc(-n2nc(C(=O)NCC(=O)N3CCC(C)CC3)c3ccccc3c2=O)cc1 | inconclusive [inhibitor, single point] | –
3 | C=CCc1cc(Cl)ccc1OCCN1CC(C)OC(C)C1 (centres undefined) | inconclusive [inhibitor, partial curve, poor fit] | –
4 | COc1ccc(CNS(=O)(=O)c2cn(C)c(=O)n(C)c2=O)cc1 | – | inactive: 24.7%
5 | C/C(=N\OC(=O)Nc1ccccc1)c1cnn(-c2cc(C(F)(F)F)cc(C)n2)c1C | – | inactive: -15.6%
6 | CC1CC(C)CN(CCCNC(=O)c2ccc3c(c2)N(Cc2ccccc2)C(=O)c2ccccc2S3=O)C1 (centres undefined) | inconclusive [inhibitor, full curve, poor fit] | –
7 | Cc1ccc(NC(=O)N/C=C/c2ccco2)c(C)c1 | – | inactive: -22.6%
8 | COc1ccc(CN2CCC(n3nccc3NC(=O)C3CCCC3)CC2)cc1 | inconclusive [inhibitor, single point] | –
9 | Cc1nn(-c2ccccc2)c(Cl)c1/C=N/NC(=O)c1nn(C)cc1[N+](=O)[O-] | inconclusive [inhibitor, single point] | –
10 | CN(CC(=O)Nc1c(Cl)cccc1Cl)C(=O)C1=COCCO1 | – | inactive: 5.3%
11 | O=C(CN1CCN(C2CCCCC2)CC1)Nc1ccccc1-c1ccccc1 | inconclusive [inhibitor, partial curve, poor fit] | –
12 | CCn1c(SC/C=C/c2ccccc2)nnc1-c1cnccn1 | inconclusive [inhibitor, single point] | –
13 | CS(=O)(=O)CCC(C(=O)O)N1C(=O)c2ccc(Oc3ccc(Cl)cc3)cc2C1=O (centres undefined) | – | inactive: -9.02%
14 | CSc1ccc(/C=C(/NC(=O)c2ccco2)C(=O)N2CCOCC2)cc1 | – | inactive: -0.821%
15 | Cc1noc(C)c1COC(=O)c1ccc(F)c(S(=O)(=O)N2CCOCC2)c1 | inconclusive [inhibitor, single point] | –
16 | C/C(=N\Nc1cccc(Cl)c1)C1(C)N(O)C(C)(C)C(c2ccco2)=[N+]1[O-] (centres undefined) | active: 7.38 µM | –
17 | CN(Cc1ccccc1)C(=O)c1[nH]cnc1C(=O)Nc1ccc(Cl)cc1 | inconclusive [inhibitor, single point] | –
18 | Cc1ccc(CNC(=O)C(C(=O)NCc2ccc(C)o2)c2ncc(C(F)(F)F)cc2Cl)o1 | inconclusive [inhibitor, full curve, poor fit] | –
19 | Cc1ccc(C(=O)NNC(=O)CSc2nnc3c(n2)[nH]c2ccc(C)cc23)cc1 | – | inactive: 6.82%
20 | CC(C)=C1C2CCC1C1C(=O)N(c3nc(-c4ccccc4)c(C)s3)C(=O)C21 (centres undefined) | – | inactive: -4.92%
21 | Cc1ccc2nc(SCC(=O)NC3CCCC3)[nH]c2c1 | – | inactive: 22.6%
22 | Cc1cc(OCC(=O)OCC(=O)c2c(N)n(C)c(=O)n(C)c2=O)ccc1Cl | – | inactive: -6.67%

Row | SMILES | Potency | activity change, negative = inhibition
23 | COc1ccc(NC(=O)c2ccc(NC(=O)C3CC3)cc2)cc1 | – | inactive: -14.9%
24 | O=C(O/N=C(/c1ccccc1)c1ccncc1)c1ccc(F)cc1 | inconclusive [inhibitor, partial curve, poor fit] | –
25 | CN(C)C(CNC(=O)c1cccc(NS(=O)(=O)c2ccc(Br)cc2)c1)c1ccco1 (centres undefined) | inconclusive [inhibitor, single point] | –
26 | Cc1cccc(NC(=O)c2ccc(S(=O)(=O)N3CCC(C)CC3)cc2)n1 | inconclusive [inhibitor, partial curve, poor fit] | –
27 | Cc1cc(C)c2c(N)c(C(=O)c3ccc(Cl)cc3Cl)sc2n1 | active: 13.1 µM | –
28 | Cc1ccc(-n2ncc(C(=O)NCC3CCN(C4CCCC4)C3)c2C2CCN(C(=O)OC(C)(C)C)CC2)cc1C (centres undefined) | active: 13.1 µM | –
29 | CCOC(=O)C1=C(CN2CCOCC2)NC(=O)NC1c1cccc([N+](=O)[O-])c1 (centres undefined) | inconclusive [inhibitor, partial curve, poor fit] | –
30 | CC(C)(C)NC(=O)C1CCN(C(=O)c2ccc(Br)cc2)CC1 | inconclusive [inhibitor, partial curve] | –
31 | CN(Cc1ccccc1F)C(=O)c1ccc2c(=O)n3c(nc2c1)CCC3 | inconclusive [inhibitor, full curve, poor fit] | –
32 | COc1ccccc1C(=O)OCC(=O)Nc1ccc(Cl)cn1 | – | inactive: 29%
33 | CC(C)OC(=O)c1c2c(n3ccccc13)C(=O)c1ccccc1C2=O | inconclusive [inhibitor, single point] | –
34 | CC(=O)c1ccc(OCCCC(=O)Nc2cccc(S(=O)(=O)N3CCCCC3)c2)cc1 | active: 13.1 µM | –
35 | COc1ccc(C2(C)NC(=O)N(CC(=O)c3cc(C)n(C4CC4)c3C)C2=O)cc1OC (centres undefined) | inconclusive [inhibitor, single point] | –
36 | CC1(C)CC(=O)c2sc(NC(=O)C3COc4ccccc4O3)nc2C1 (centres undefined) | – | inactive: 54.4%
37 | Cc1cccc(C)c1NC(=O)CSc1nnc(-c2ccccc2)n1Cc1ccc2c(c1)OCO2 | – | inactive: -15.3%
38 | O=C(COc1ccc(Cl)cc1)NNC(=O)C(=O)NC1CCCCC1 | inconclusive [inhibitor, partial curve] | –
39 | Oc1cccc(/C=N/N2CCN(c3ccccn3)CC2)c1 | – | inactive: 53.4%
40 | CCN(CC)S(=O)(=O)c1cc(C(=O)OCC(=O)Nc2cccc(S(=O)(=O)N(C)C)c2)ccc1F | – | inactive: -7.84%
41 | COc1cc(OC)cc(C(=O)Nc2cc(NC(=O)c3ccco3)ccc2OC)c1 | inconclusive [inhibitor, single point] | –
42 | O=C(COC(=O)CCC(=O)c1ccc(F)cc1)Nc1nnc(-c2ccccc2)o1 | inconclusive [inhibitor, partial curve, poor fit] | –
43 | CCOC(=O)N1CCN(C(=O)c2cn(CC)c3ccc(S(=O)(=O)N4CC(C)CC(C)C4)cc3c2=O)CC1 (centres undefined) | inconclusive [inhibitor, partial curve, poor fit] | –
44 | CCOC(=O)c1sc2nc(CC(=O)OC)nc(NCc3ccc(F)cc3)c2c1C | inconclusive [inhibitor, single point] | –
